Reference: the supplement of paper PMC4604168 (melanoma cell lines)
This is one part of the list. Most values come without repeats; read them as rough.

Key:
Assay in all cases: cell count relative to DMSO control; melanoma cells; higher = more viable cells
Conditions in all cases: library dose: low library concentration; 72 h
[1] = tested on: MZ2-MEL
[2] = tested on: MeWo
[3] = tested on: RPMI7951
[4] = tested on: RVH-421
[5] = tested on: SkMel28
[6] = tested on: SkMel2
[7] = tested on: SkMel30
[8] = tested on: SkMel5
[9] = tested on: UACC257
[10] = tested on: UACC62
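Also: cell number obtained by counting DAPI-stained nuclei in high-throughput microscope images with image analysis software, screen run in 1,536-well plates.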

Compound | cell count [1] [%] | cell count [2] [%] | cell count [3] [%] | cell count [4] [%] | cell count [5] [%] | cell count [6] [%] | cell count [7] [%] | cell count [8] [%] | cell count [9] [%] | cell count [10] [%]
NC1(c2ccc(-c3nc4ccn5c(=O)[nH]nc5c4cc3-c3ccccc3)cc2)CCC1 + c1cc(-c2cnn3cc(-c4ccc(OCCN5CCCCC5)cc4)cnc23)ccn1 [Dorsomorphin] (first compound 0.4 µM, partner dose 0.4 µM) | 96.5 | 89 | 84 | 93.7 | 76.4 | 114 | 87 | 81.2 | 96.1 | 79.3
CS(=O)(=O)c1ccc(C(=O)Nc2ccc(Cl)c(-c3ccccn3)c2)c(Cl)c1 [vismodegib] + c1cc(-c2cnn3cc(-c4ccc(OCCN5CCCCC5)cc4)cnc23)ccn1 [Dorsomorphin] (first compound 1 µM, partner dose 0.4 µM) | 92.5 | 88.3 | 98.1 | 93.1 | 87.6 | 97.5 | 111 | 77.2 | 87.5 | 89.3
CCCS(=O)(=O)Nc1ccc(F)c(C(=O)c2c[nH]c3ncc(Cl)cc23)c1F + COc1cc(N2CCC(N3CCN(C)CC3)CC2)ccc1Nc1ncc(Cl)c(Nc2ccccc2S(=O)(=O)C(C)C)n1 [NVP-TAE684] (first compound 0.08 µM, partner dose 0.08 µM) | 85.2 | 87.8 | 99.3 | 77 | 84.1 | 96.1 | 96.9 | 110 | 83.1 | 77.7
CN(c1ncccc1CNc1nc(Nc2ccc3c(c2)CC(=O)N3)ncc1C(F)(F)F)S(C)(=O)=O + O=C(Nc1ccccc1)c1cc([N+](=O)[O-])ccc1Cl [GW9662] (first compound 0.08 µM, partner dose 2 µM) | 95.3 | 103 | 73.9 | 57.9 | 104 | 89.5 | 93.6 | 103 | 88.2 | 83.9
CS(=O)(=O)c1ccc(C(=O)Nc2ccc(Cl)c(-c3ccccn3)c2)c(Cl)c1 [vismodegib] + O=c1cc(-c2cccc3c2Sc2ccccc2S3)oc(N2CCOCC2)c1 [KU55933] (first compound 1 µM, partner dose 1 µM) | 100 | 104 | 106 | 140 | 95.9 | 106 | 112 | 103 | 84.3 | 94.8
CS(=O)(=O)c1ccc(C(=O)Nc2ccc(Cl)c(-c3ccccn3)c2)c(Cl)c1 [vismodegib] + COc1cc2c(Oc3ccc4[nH]c(C)cc4c3F)ncnc2cc1OCCCN1CCCC1 [cediranib] (first compound 1 µM, partner dose 0.4 µM) | 103 | 93.2 | 125 | 82.3 | 95.7 | 96.1 | 90.5 | 97.6 | 110 | 98.9
NC1(c2ccc(-c3nc4ccn5c(=O)[nH]nc5c4cc3-c3ccccc3)cc2)CCC1 + OCCn1cc(-c2cnc3nnn(Cc4ccc5ncccc5c4)c3n2)cn1 [PF04217903] (first compound 0.4 µM, partner dose 1 µM) | 98.2 | 98.9 | 95.1 | 93.4 | 65.9 | 91.1 | 93.5 | 80.8 | 79.4 | 85.3
CN(c1ncccc1CNc1nc(Nc2ccc3c(c2)CC(=O)N3)ncc1C(F)(F)F)S(C)(=O)=O + COC(=O)c1sccc1S(=O)(=O)Nc1ccc(Nc2ccccc2)cc1OC [GSK0660] (first compound 0.08 µM, partner dose 1 µM) | 93 | 94.9 | 91.7 | 80.6 | 68.4 | 85.4 | 98.7 | 73.3 | 84.8 | 96.7
CCCS(=O)(=O)Nc1ccc(F)c(C(=O)c2c[nH]c3ncc(Cl)cc23)c1F + Oc1cc(-c2nc(-c3ccccc3)[nH]c2-c2ccncc2)ccc1Cl [L779450] (first compound 0.08 µM, partner dose 0.2 µM) | 80.6 | 88.9 | 114 | 79.8 | 69.2 | 98.3 | 93.3 | 97.6 | 64.8 | 48.5
CCCS(=O)(=O)Nc1ccc(F)c(C(=O)c2c[nH]c3ncc(Cl)cc23)c1F + C=CCn1c(=O)c2cnc(Nc3ccc(N4CCN(C)CC4)cc3)nc2n1-c1cccc(C(C)(C)O)n1 [MK1775] (first compound 0.08 µM, partner dose 0.02 µM) | 86.8 | 89.3 | 117 | 77.7 | 64.1 | 87.8 | 93.2 | 95 | 70.2 | 61.3
CN(c1ncccc1CNc1nc(Nc2ccc3c(c2)CC(=O)N3)ncc1C(F)(F)F)S(C)(=O)=O + CC1(C)NC(=O)N(c2ccc([N+](=O)[O-])c(C(F)(F)F)c2)C1=O [nilutamide] (first compound 0.08 µM, partner dose 1 µM) | 97.3 | 100 | 77.4 | 79.2 | 95.1 | 99.3 | 116 | 68.1 | 68 | 92.2
CN(c1ncccc1CNc1nc(Nc2ccc3c(c2)CC(=O)N3)ncc1C(F)(F)F)S(C)(=O)=O + CN(C)S(=O)(=O)c1ccc2c(c1)/C(=C/c1cc3c([nH]1)CCCC3)C(=O)N2 [SU6656] (first compound 0.08 µM, partner dose 0.4 µM) | 93.7 | 92 | 89.9 | 81.1 | 89.9 | 86 | 89.8 | 68.8 | 78 | 74.5
NC1(c2ccc(-c3nc4ccn5c(=O)[nH]nc5c4cc3-c3ccccc3)cc2)CCC1 + CC(C)(C)c1cnc(CSc2cnc(NC(=O)C3CCNCC3)s2)o1 [SNS-032] (first compound 0.4 µM, partner dose 0.01 µM) | 104 | 88.9 | 83.3 | 93 | 65.5 | 87.3 | 92.7 | 90 | 83 | 64.2
C=C(c1ccc(C(=O)O)cc1)c1cc2c(cc1C)C(C)(C)CCC2(C)C [Bexarotene] + Cc1cc([N+](=O)[O-])ccc1NS(=O)(=O)c1cc(Cl)ccc1Cl [FH535] (first compound 2 µM, partner dose 1 µM) | 92.3 | 90.5 | 92.6 | 79.7 | 70.4 | 97.5 | 105 | 80.6 | 107 | 78.6
NC1(c2ccc(-c3nc4ccn5c(=O)[nH]nc5c4cc3-c3ccccc3)cc2)CCC1 + Oc1cc(-c2nc(-c3ccccc3)[nH]c2-c2ccncc2)ccc1Cl [L779450] (first compound 0.4 µM, partner dose 0.2 µM) | 69.1 | 108 | 104 | 91 | 66.6 | 88.4 | 69.1 | 114 | 73.4 | 74.4
CCCS(=O)(=O)Nc1ccc(F)c(C(=O)c2c[nH]c3ncc(Cl)cc23)c1F + COC(=O)c1sccc1S(=O)(=O)Nc1ccc(Nc2ccccc2)cc1OC [GSK0660] (first compound 0.08 µM, partner dose 1 µM) | 86.2 | 92.9 | 107 | 104 | 70.4 | 90.2 | 89.6 | 107 | 90.1 | 54.2
C=C(c1ccc(C(=O)O)cc1)c1cc2c(cc1C)C(C)(C)CCC2(C)C [Bexarotene] + Cc1ccc(NC(=O)c2cccc(N(C)C)c2)cc1NC(=O)c1ccc(O)cc1 [ZM336372] (first compound 2 µM, partner dose 2 µM) | 77.6 | 91.9 | 77.7 | 68.9 | 71 | 100 | 89.7 | 78.9 | 84.4 | 94.2
C=C(c1ccc(C(=O)O)cc1)c1cc2c(cc1C)C(C)(C)CCC2(C)C [Bexarotene] + CO[C@@H]1[C@H](N(C)C(=O)c2ccccc2)C[C@H]2O[C@]1(C)n1c3ccccc3c3c4c(c5c6ccccc6n2c5c31)C(=O)NC4 [Midostaurin] (first compound 2 µM, partner dose 0.08 µM) | 92 | 79.4 | 71.4 | 88.3 | 66.5 | 76.6 | 91.7 | 65.2 | 77 | 72.7
C=C(c1ccc(C(=O)O)cc1)c1cc2c(cc1C)C(C)(C)CCC2(C)C [Bexarotene] + COc1cc(Nc2ncc(F)c(Nc3ccc4c(n3)NC(=O)C(C)(C)O4)n2)cc(OC)c1OC [Tamatinib] (first compound 2 µM, partner dose 0.4 µM) | 94.1 | 77 | 90.3 | 111 | 59.4 | 84.8 | 93.8 | 83.2 | 86.9 | 81
NC1(c2ccc(-c3nc4ccn5c(=O)[nH]nc5c4cc3-c3ccccc3)cc2)CCC1 + COC(=O)c1sccc1S(=O)(=O)Nc1ccc(Nc2ccccc2)cc1OC [GSK0660] (first compound 0.4 µM, partner dose 1 µM) | 100 | 88.1 | 82.1 | 94.4 | 77 | 93.5 | 93.6 | 88.6 | 85.2 | 93.1
C=C(c1ccc(C(=O)O)cc1)c1cc2c(cc1C)C(C)(C)CCC2(C)C [Bexarotene] + CN(C)S(=O)(=O)c1ccc2c(c1)/C(=C/c1cc3c([nH]1)CCCC3)C(=O)N2 [SU6656] (first compound 2 µM, partner dose 0.4 µM) | 105 | 97.2 | 94.7 | 104 | 74.8 | 98.5 | 110 | 96.7 | 88 | 75.9
CN(c1ncccc1CNc1nc(Nc2ccc3c(c2)CC(=O)N3)ncc1C(F)(F)F)S(C)(=O)=O + O=C(O)C(=O)Nc1sc2c(c1C(=O)O)CCNC2 [TCS401] (first compound 0.08 µM, partner dose 1.66667 µM) | 88.3 | 87.4 | 89.1 | 119 | 88.4 | 81.1 | 120 | 71.1 | 64.9 | 73.9
